Data on 195 variants can be found in a collection of fitness landscapes (doi:10.1126/science.1257360).

B1: PhoQ; a variant is named by its letters at X, in order, P23837 (parent)
chain: MKKLLRLFFPLSLRVRFLLATAAVVLVLSLAYGMVALIGYSVSFDKTTFRLLRGESNLFYTLAKWENNKLHVELPENIDKQSPTMTLIYDENGQLLWAQRDVPWLMKMIQPDWLKSNGFHEIEADVNDTSLLLSGDHSIQQQLQEVREDDDDAEMTHSVAVNVYPATSRMPKLTIVVVDTIPVELKSSYMVWSWFIYVLSANLLLVIPLLWVAAWWSLRPIEALAKEVRELEEHNRELLNPATTRELTSLVRNLNRLLKSERERYDKYRTTLTDLTHSLKTPLXXLQXXLRSLRSEKMSVSDAEPVMLEQISRISQQIGYYLHRASMRGGTLLSRELHPVAPLLDNLTSALNKVYQRKGVNISLDISPEISFVGEQNDFVEVMGNVLDNACKYCLEFVEISARQTDEHLYIVVEDDGPGIPLSKREVIFDRGQRVDTLRPGQGVGLAVAREITEQYEGKIVAGESMLGGARMEVIFGRQHSAPKDE

Some of the results follow.

The variants in this experiment derive from B1. Nature of the experiment: enrichment ratio after two sorts for PhoP signalling (ratio (wild type AVST 3.29)); higher = more functional. The conditions noted are these: with PhoP (E. coli).
Take GSTK: the enrichment ratio was no more than 0.25.

For the variant WIRY, the enrichment ratio is no more than 0.25.

On to VRYT, for which the enrichment ratio is no more than 0.25.

Consider KFIR, for which the enrichment ratio was no more than 0.25.

In the case of FLQS, the enrichment ratio is no more than 0.25.

For AHWP, the enrichment ratio is no more than 0.25.

On to FRAE, for which the enrichment ratio is no more than 0.25.

Turning to FPRL, the enrichment ratio is no more than 0.25.

In the case of MAGR, the enrichment ratio is no more than 0.25.

In the case of TMWQ, the enrichment ratio is no more than 0.25.

Take FMTP: the enrichment ratio was no more than 0.25.

For the variant SPRG, the enrichment ratio was no more than 0.25.

HGKL: the enrichment ratio was no more than 0.25.

With IISH, the enrichment ratio is no more than 0.25.

As to RVKF, the enrichment ratio is no more than 0.25.

GWLA: the enrichment ratio is no more than 0.25.

Turning to IYSR, the enrichment ratio was no more than 0.25.

In the case of TMWK, the enrichment ratio is no more than 0.25.

With AFEN, the enrichment ratio was no more than 0.25.

Regarding TGAS, the enrichment ratio was determined as 14.

As to YSVC, the enrichment ratio is no more than 0.25.

Regarding KYET, the enrichment ratio was no more than 0.25.

Turning to AVGK, the enrichment ratio is no more than 0.25.

On to DARV, for which the enrichment ratio was no more than 0.25.

For the variant SLEI, the enrichment ratio was no more than 0.25.

WPEK: the enrichment ratio is no more than 0.25.

Take HTKD: the enrichment ratio is no more than 0.25.

Turning to RWIG, the enrichment ratio was no more than 0.25.

With ELCK, the enrichment ratio was 1.28.

As for SKPG, the enrichment ratio was no more than 0.25.

On to YIGH, for which the enrichment ratio was 0.76.

In the case of VPLV, the enrichment ratio was no more than 0.25.

For the variant MDDQ, the enrichment ratio was no more than 0.25.

Regarding IMPN, the enrichment ratio is no more than 0.25.

On to WMLP, for which the enrichment ratio is no more than 0.25.

As to PEGS, the enrichment ratio is no more than 0.25.

Regarding MFAV, the enrichment ratio is no more than 0.25.

With SEIS, the enrichment ratio worked out at 8.01.

Turning to HVRL, the enrichment ratio was no more than 0.25.

As for IKLT, the enrichment ratio is no more than 0.25.

Take AGMS: the enrichment ratio came to 3.53.

With DMQI, the enrichment ratio was no more than 0.25.

NWNL: the enrichment ratio is no more than 0.25.

On to LMHQ, for which the enrichment ratio is no more than 0.25.

For the variant LFGI, the enrichment ratio is no more than 0.25.

As to SKKI, the enrichment ratio was no more than 0.25.

Take EWSW: the enrichment ratio was no more than 0.25.

On to TLWV, for which the enrichment ratio was no more than 0.25.

Turning to EQFM, the enrichment ratio was no more than 0.25.

As for LACF, the enrichment ratio is no more than 0.25.

As to DHTF, the enrichment ratio is no more than 0.25.

QNVF: the enrichment ratio is no more than 0.25.

REKR: the enrichment ratio was no more than 0.25.

Turning to HFQV, the enrichment ratio was no more than 0.25.

For NVYW, the enrichment ratio was no more than 0.25.

On to GPYH, for which the enrichment ratio is no more than 0.25.

For the variant DWGP, the enrichment ratio was no more than 0.25.

For the variant VKKM, the enrichment ratio was no more than 0.25.

On to SKNV, for which the enrichment ratio was no more than 0.25.

Regarding FLTP, the enrichment ratio is no more than 0.25.

For VRQA, the enrichment ratio is no more than 0.25.

For GHGD, the enrichment ratio is no more than 0.25.

Take SSSA: the enrichment ratio is 9.48.

For VGCL, the enrichment ratio came out at 4.33.

As to ELAG, the enrichment ratio is no more than 0.25.

For FGMC, the enrichment ratio is 4.08.

HNYG: the enrichment ratio was no more than 0.25.

As for VLPC, the enrichment ratio is no more than 0.25.

On to DYFT, for which the enrichment ratio is no more than 0.25.

For MTKL, the enrichment ratio is no more than 0.25.

Turning to TAKC, the enrichment ratio was no more than 0.25.

As for KDMN, the enrichment ratio was no more than 0.25.

With FCLM, the enrichment ratio came to 12.7.

As to EHGT, the enrichment ratio is no more than 0.25.

Regarding CTFS, the enrichment ratio is no more than 0.25.

Regarding ECYS, the enrichment ratio was no more than 0.25.

Turning to RVPI, the enrichment ratio was no more than 0.25.

In the case of VDCA, the enrichment ratio is no more than 0.25.

In the case of IMDM, the enrichment ratio is no more than 0.25.

As to TTTL, the enrichment ratio worked out at 13.4.

For the variant SDDE, the enrichment ratio is no more than 0.25.

For YQTS, the enrichment ratio is no more than 0.25.

For the variant IQCN, the enrichment ratio is no more than 0.25.

Take VMWA: the enrichment ratio is no more than 0.25.

As to SKAK, the enrichment ratio is no more than 0.25.

As for TSQC, the enrichment ratio was 14.5.

With YWGI, the enrichment ratio is no more than 0.25.

For the variant MIER, the enrichment ratio was no more than 0.25.

For QEDR, the enrichment ratio was no more than 0.25.

Turning to EKLA, the enrichment ratio is no more than 0.25.

For the variant KHIT, the enrichment ratio was no more than 0.25.

Consider AVCF, for which the enrichment ratio was found to be 10.1.

For the variant PMAN, the enrichment ratio was no more than 0.25.

As to LYIA, the enrichment ratio came to 0.422.

Turning to VGGD, the enrichment ratio is no more than 0.25.

Regarding MVYA, the enrichment ratio was no more than 0.25.

In the case of DIVA, the enrichment ratio was no more than 0.25.

Take FECI: the enrichment ratio turned out to be 3.72.

On to VAPM, for which the enrichment ratio is no more than 0.25.

Consider VRHG, for which the enrichment ratio was no more than 0.25.

Regarding VHLL, the enrichment ratio was 0.26.

For LQWR, the enrichment ratio is no more than 0.25.

Consider NRVE, for which the enrichment ratio is no more than 0.25.

Turning to FRIS, the enrichment ratio is no more than 0.25.

Take PYKL: the enrichment ratio is no more than 0.25.

On to SVCK, for which the enrichment ratio is 9.8.

In the case of YYSE, the enrichment ratio was no more than 0.25.

With GVKS, the enrichment ratio is no more than 0.25.

As to FYMS, the enrichment ratio is no more than 0.25.

In the case of NWHQ, the enrichment ratio is no more than 0.25.

Consider MMCV, for which the enrichment ratio is 4.31.

As to RKAG, the enrichment ratio was no more than 0.25.

Turning to NSPD, the enrichment ratio turned out to be 1.34.

Consider FYGS, for which the enrichment ratio is no more than 0.25.

Regarding MRGK, the enrichment ratio was no more than 0.25.

Regarding YWEM, the enrichment ratio is no more than 0.25.

With ENGN, the enrichment ratio was no more than 0.25.

With WFNF, the enrichment ratio is no more than 0.25.

Turning to FRYG, the enrichment ratio was no more than 0.25.

Take LQSN: the enrichment ratio was no more than 0.25.

As for RVSL, the enrichment ratio is no more than 0.25.

Consider IWNW, for which the enrichment ratio was no more than 0.25.

Turning to FCFE, the enrichment ratio is no more than 0.25.

On to PPHM, for which the enrichment ratio is no more than 0.25.

Consider SIQQ, for which the enrichment ratio was 5.83.

As to VRDT, the enrichment ratio was no more than 0.25.

VNFF: the enrichment ratio is no more than 0.25.

Consider FDKH, for which the enrichment ratio is no more than 0.25.

With ICEK, the enrichment ratio is no more than 0.25.

As to GLMH, the enrichment ratio was no more than 0.25.

KTWY: the enrichment ratio is no more than 0.25.

Consider NCII, for which the enrichment ratio was no more than 0.25.

In the case of QIDW, the enrichment ratio was no more than 0.25.

TDKY: the enrichment ratio is no more than 0.25.

As to NCIS, the enrichment ratio was no more than 0.25.

DGLT: the enrichment ratio is no more than 0.25.

NDYS: the enrichment ratio is no more than 0.25.

As to FLAQ, the enrichment ratio was no more than 0.25.

KHRI: the enrichment ratio was no more than 0.25.

For SFRD, the enrichment ratio is no more than 0.25.

With GMHR, the enrichment ratio was no more than 0.25.

For the variant EMYN, the enrichment ratio was no more than 0.25.

Consider AVRW, for which the enrichment ratio was no more than 0.25.

Take TIRC: the enrichment ratio was no more than 0.25.

For PHDY, the enrichment ratio was no more than 0.25.

LGFL: the enrichment ratio came to 6.03.

TRPN: the enrichment ratio was no more than 0.25.

With IWAH, the enrichment ratio was no more than 0.25.

With NIIW, the enrichment ratio is no more than 0.25.

For YCWK, the enrichment ratio was no more than 0.25.

Regarding YIHV, the enrichment ratio is no more than 0.25.

In the case of LMNV, the enrichment ratio is no more than 0.25.

With FQSV, the enrichment ratio was no more than 0.25.

Take KPWE: the enrichment ratio is no more than 0.25.

Regarding FVNN, the enrichment ratio is no more than 0.25.

With TQKT, the enrichment ratio was no more than 0.25.

As to FGME, the enrichment ratio is no more than 0.25.

As to IMKW, the enrichment ratio is no more than 0.25.

As to FSKA, the enrichment ratio was no more than 0.25.

Take TCIP: the enrichment ratio is no more than 0.25.

With PCIV, the enrichment ratio was no more than 0.25.

Consider ENCV, for which the enrichment ratio was no more than 0.25.

In the case of SLND, the enrichment ratio was no more than 0.25.

Consider HRLR, for which the enrichment ratio is no more than 0.25.

Turning to WKQA, the enrichment ratio is no more than 0.25.

For the variant YITG, the enrichment ratio came out at 0.471.

For NNWG, the enrichment ratio is no more than 0.25.

For the variant LHVV, the enrichment ratio is no more than 0.25.

Regarding GEYF, the enrichment ratio is 10.1.

DHWS: the enrichment ratio was no more than 0.25.

Turning to GMQQ, the enrichment ratio was no more than 0.25.

Consider SMDP, for which the enrichment ratio was no more than 0.25.

Take FRAG: the enrichment ratio was no more than 0.25.

Turning to AIVS, the enrichment ratio came out at 12.6.

Regarding IIFC, the enrichment ratio was no more than 0.25.

In the case of GTRY, the enrichment ratio was no more than 0.25.

For RYVQ, the enrichment ratio is no more than 0.25.

As for KHYQ, the enrichment ratio is no more than 0.25.

Consider YSWL, for which the enrichment ratio was no more than 0.25.

With RYSC, the enrichment ratio was no more than 0.25.

Turning to PVDR, the enrichment ratio was no more than 0.25.

Regarding YDVC, the enrichment ratio was no more than 0.25.

For RKWY, the enrichment ratio is no more than 0.25.

As for YKSP, the enrichment ratio is no more than 0.25.

Regarding SPPT, the enrichment ratio was no more than 0.25.

Consider HLEW, for which the enrichment ratio is no more than 0.25.

For IMTM, the enrichment ratio is no more than 0.25.

Turning to VQNW, the enrichment ratio was no more than 0.25.

As for YLGK, the enrichment ratio is no more than 0.25.

As to FLWD, the enrichment ratio is no more than 0.25.

As for WEDC, the enrichment ratio is no more than 0.25.

For CLCL, the enrichment ratio was no more than 0.25.

Regarding FMRL, the enrichment ratio is no more than 0.25.

Regarding FFPW, the enrichment ratio is no more than 0.25.

For the variant MCHW, the enrichment ratio was no more than 0.25.
